About 4,300 (8.3%) of roughly 52,000 compounds were called active. Cut-off read from the data, not from the text of the source: active = survival mostly below about 52% (no sharp cut-off); inactive = mostly above about 56%. The list shows a part of the results.

For the assay, the system named is DeltatarO mutant. The assay is described as follows: S. aureus survival, RN4220 and DeltatarO strains – OD600, teichoic acid synthesis inhibitors, primary screen (AID 463173). The settings on record: S. aureus RN4220 wild type/DeltatarO growth, OD600, 18 h, hits give low values, screened at 18.75 µg/mL (by protocol).
On to `COc1ccc(C)c2sc(N(Cc3cccnc3)C(=O)CCc3ccccc3)nc12`, for which the survival is inactive: 78%. With `CC(=O)c1ccc(NC(=O)CCn2nc(C)c(S(=O)(=O)N3CCC(C)CC3)c2C)cc1`, the survival is active: -5%. On to `CC1CCC(NC(=O)Cn2ncc3c4ccccc4n(Cc4ccc(Cl)cc4)c3c2=O)CC1` (stereo not given), for which the survival is inactive: 80%.

Turning to `COc1ccc(OC)c(-c2noc(CSc3nnc(Cc4ccccc4)n3-c3cccc(C)c3)n2)c1`, the survival is inactive: 59%. With `Cc1noc2nc(C(=O)O)nc(N3CCCCC3)c12`, the survival was inactive: 57%. In the case of `C1=CC2=Nc3cccc[n+]3CN2C=C1` it was inactive: 104%; in that of `CCc1nnc(SCC(=O)Nc2cc(Cl)c(OC)cc2OC)c2cc3oc(C)cc3n12`, inactive: 62%. Consider `COc1cccc(N2CC(NC(=O)COc3ccc4ccccc4c3)CC2=O)c1` (stereo not given), for which the survival was inactive: 107%. As for `Cc1ccccc1CN1C(=O)c2ccccc2Sc2ccc(C(=O)NC3CCCCC3)cc21`, the survival is inactive: 71%. On to `COc1ccc(NC(=O)c2nn(C)c3c2CS(=O)(=O)c2ccccc2-3)cc1Cl`, for which the survival was active: 56%. Regarding `COc1ccc(C2=C(Nc3ccc(Br)c(C)c3)c3ccccc3C2=O)cc1`, the survival was active: 0%.

Turning to `CC(C)Nc1ccc(-c2nc(-c3ccncc3)no2)cc1[N+](=O)[O-]`, the survival was inactive: 79%. In the case of `CCOC(=O)c1c(C)[nH]c(C)c1S(=O)(=O)N1CCCC(C(=O)N2CCN(c3ccccc3F)CC2)C1` (stereo not given) it was inactive: 84%; in that of `COc1ccc(N(CC(=O)NC(C)c2ccccc2)S(=O)(=O)c2c(C)nn(C)c2C)cc1` (stereo not given), inactive: 77%; in that of `COc1ccc(N2CCN(Cc3nc4c(c(=O)[nH]c(=O)n4C)n3Cc3ccc(C)cc3)CC2)cc1`, inactive: 113%.

On to `CCN(CC)C(=O)CSc1nc2cccnc2n1-c1ccccc1OC`, for which the survival was inactive: 72%.

On to `CC1=NN(Cc2ccccc2)C(=O)/C1=C\c1ccc(N(C)C)cc1`, for which the survival is inactive: 66%. As to `CCCCOc1ccc(C2(C)NC(=O)N(C)C2=O)cc1` (stereo not given), the survival is inactive: 104%. For the compound `Cc1ccc(OCc2nc(-c3ccc(C(=O)NCCc4ccc(Cl)cc4)cc3)oc2C)cc1`, the survival is inactive: 84%. Then `Cc1ccc(NC(=O)CN2C(=O)CCc3ccccc32)cc1C`, with inactive: 80%; and `CCc1ccc2[nH]c(=O)c(CN(CCCO)C(=O)Nc3ccccc3)cc2c1`, with inactive: 73%; and `CCCCc1ccc(NC(=O)c2cc(-c3ccc(C)c(F)c3)on2)cc1`, with inactive: 50%. As for `Cn1c(=O)c2sccc2n2c(CCC(=O)N3CCN(c4ccc(F)cc4)CC3)nnc12`, the survival was inactive: 189%. As for `CCOc1ccc(C2C(C(=O)Nc3ccccc3)=C(C)Nc3nc(SCc4cccc(OC)c4)nn32)cc1` (stereo not given), the survival is inactive: 93%.

As for `O=C(NCc1ccccc1)c1nc(S(=O)(=O)Cc2ccc(F)cc2)ncc1Cl`, the survival is active: -6%.
